Source: publication PMC4336329 (PLoS ONE, 2015)
Hit rate of the full screen: of about 310,000 compounds, about 14,000 (4.5%) showed an effect of 50% or more. The effect is printed as a negative number. The list shows a part of the results.

These molecules were tested against human ether-à-go-go-related gene (hERG) potassium channel (human, UniProt Q12809) (assay: primary screen, population patch clamp on CHO cells stably expressing hERG).
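Also: peak tail current of the secondary pulse compared with the same well before compound.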

human ether-à-go-go-related gene (hERG) potassium channel, sequence (Q12809 whole entry, looked up): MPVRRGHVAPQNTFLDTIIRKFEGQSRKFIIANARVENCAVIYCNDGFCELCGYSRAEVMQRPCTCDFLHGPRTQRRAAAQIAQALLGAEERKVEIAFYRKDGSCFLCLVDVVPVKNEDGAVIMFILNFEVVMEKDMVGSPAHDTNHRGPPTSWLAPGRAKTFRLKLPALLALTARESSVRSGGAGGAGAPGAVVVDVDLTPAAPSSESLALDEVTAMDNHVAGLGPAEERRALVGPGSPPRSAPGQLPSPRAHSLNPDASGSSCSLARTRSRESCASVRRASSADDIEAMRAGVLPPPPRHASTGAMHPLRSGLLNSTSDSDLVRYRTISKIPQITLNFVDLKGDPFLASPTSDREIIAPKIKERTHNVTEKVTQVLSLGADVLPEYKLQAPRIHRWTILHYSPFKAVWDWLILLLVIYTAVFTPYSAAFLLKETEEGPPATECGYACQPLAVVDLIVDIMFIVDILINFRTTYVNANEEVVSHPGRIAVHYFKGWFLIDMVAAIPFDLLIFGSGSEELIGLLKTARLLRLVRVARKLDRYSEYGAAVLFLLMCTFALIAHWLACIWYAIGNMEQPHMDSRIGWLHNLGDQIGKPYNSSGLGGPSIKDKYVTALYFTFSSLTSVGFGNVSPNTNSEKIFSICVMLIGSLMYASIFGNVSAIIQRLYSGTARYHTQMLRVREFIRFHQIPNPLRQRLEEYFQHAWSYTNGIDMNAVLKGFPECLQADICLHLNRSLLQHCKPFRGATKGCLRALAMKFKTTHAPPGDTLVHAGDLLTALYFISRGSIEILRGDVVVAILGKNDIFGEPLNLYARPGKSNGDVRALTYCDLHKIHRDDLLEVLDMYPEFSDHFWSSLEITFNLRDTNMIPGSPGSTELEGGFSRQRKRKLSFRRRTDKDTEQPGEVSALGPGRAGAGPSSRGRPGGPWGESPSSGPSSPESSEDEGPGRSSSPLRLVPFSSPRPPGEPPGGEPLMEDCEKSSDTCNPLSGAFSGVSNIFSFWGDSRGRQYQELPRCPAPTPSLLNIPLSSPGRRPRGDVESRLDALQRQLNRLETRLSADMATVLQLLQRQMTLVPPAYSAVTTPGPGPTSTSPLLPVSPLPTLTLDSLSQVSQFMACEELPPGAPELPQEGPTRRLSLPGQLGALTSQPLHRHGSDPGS

In order of falling “hERG current change (%, negative = inhibition) at 10uM” value:
1. CC(C)CCOc1ccc(-c2c(=O)n(OCc3ccc([N+](=O)[O-])cc3)c3ccccc3[n+]2[O-])cc1  32.5%
2. COC(=O)CCC(=O)NNC(=O)Cc1ccccc1  30.4%
3. CC(=O)c1cn(CCOc2ccccc2C)c2ccccc12  25.8%
4. COc1cccc(/C=C2\SC(=S)N(N3C(=O)CCCC3=O)C2=O)c1  24.5%
5. Cc1cccc(-c2nc3ccccc3c(=O)n2N)c1  21.8%
6. COc1ccc(-c2c(NCCc3ccccc3)c(=O)c2=O)cc1  21.5%
7. CCn1c(SCC(=O)O)nnc1-c1ccccc1OC  19.2%
8. COc1cccc(C(=O)c2c(C)c(CCC#N)n3ccccc23)c1OC  18.8%
9. Cn1cc(Br)c(C(=O)Nc2sc3c(c2C(N)=O)CCC3)n1  18.4%
10. Cn1c2ccccc2c(=O)c2ccc(C#Cc3ccc(N)cc3)cc21  18.1%
11. COC(=O)C(NC(=O)c1ccccc1C(=O)O)c1ccc2ccccc2c1 (stereo not shown)  17.9%
12. COCCNC(=O)c1ccccc1NS(=O)(=O)c1ccc(C)c([N+](=O)[O-])c1  17.6%
13. CC(=O)N1CCc2cc(S(=O)(=O)NCC(=O)NCc3ccc(F)cc3)ccc21  14.9%
14. C=CCNc1nc(C)nc(OC)n1  13.8%
15. CCOc1ccc(NC(=O)CSc2nnc(C)n2CC)cc1  13.7%
16. COc1cc(/C=N/NC(=O)c2cc(C3CC3)[nH]n2)cc(OC)c1OC  13.1%
17. Cc1cccc(NC(=O)CSc2n[nH]c(-c3ccncc3)n2)c1C  12.5%
18. COc1ccc(NC(=O)n2nc(OC(=O)c3cccs3)cc2N)cc1  12.3%
19. Cc1cc(C)n(C(=O)CNC(=O)c2ccccc2F)n1  11.2%
20. Cc1[nH]n(-c2ccccc2)c(=O)c1N=Nc1nccs1  11.2%
21. CCOC(=O)CCNCc1ccc(OC)c(OC)c1.Cl  11.1%
22. CCOC(=O)CSc1nnc(CNC(=O)c2ccc(S(=O)(=O)N3CCOCC3)cc2)n1C  10.7%
23. CCc1ccccc1NNC(=O)c1cc(C)on1  10.6%
24. O=C(Cc1ccccc1Cl)N1CCOCC1  10%
25. Cl.OC(CN1CCOCC1)c1csc2ccccc12 (stereo not shown)  9.76%
26. O=C(CSc1nc2ccccc2s1)N1c2ccccc2Sc2ccc(Cl)cc21  9.72%
27. Oc1cccc(Nc2nc(-c3ccccc3)nc3ccccc23)c1  9.56%
28. c1cn2cc(-c3ccc4c(c3)OCO4)nc2s1  8.01%
29. COc1ccc(-c2nnc(SCC(=O)N3CCCC3)o2)c(OC)c1  7.35%
30. Cc1onc(-c2ccccc2)c1C(=O)Nc1sc2c(c1C(N)=O)CCC2  6.44%
31. O=C(CCC(=O)N1CCOCC1)NCCc1ccc(F)cc1  6.27%
32. CS(=O)(=O)N1CCN=C1SCc1ccc(Br)cc1  6.08%
33. Cc1cc(NC(=O)NN2CCOCC2)nn1-c1c(Cl)cc(Cl)cc1Cl  4.9%
34. CCC(=O)N1CCc2cc(S(=O)(=O)NC(Cc3ccccc3)C(=O)Nc3nccs3)ccc21 (stereo not shown)  4.77%
35. O=C(NCc1ccco1)/C(=C\c1ccc(F)cc1)NC(=O)c1ccco1  4.27%
36. COc1cc2nc(Nc3ccc(C)c(Cl)c3)nc(N)c2cc1OC.Cl  4.1%
37. CCOc1ccccc1N1CCN(C(=O)Nc2ccc(Cl)c(Cl)c2)CC1  3.99%
38. CCN(C(=O)CN1C(=O)S/C(=C\c2cccc(Cl)c2)C1=O)C1CCS(=O)(=O)C1 (stereo not shown)  3.29%
39. O=C(NC(=S)Nc1ccc(NC(=O)c2cccs2)cc1)c1ccco1  2.77%
40. O=C(NCC1CCCO1)NC1(C(F)(F)F)Oc2ccccc2O1 (stereo not shown)  1.63%
41. CCN(CC)S(=O)(=O)c1ccc(NC(=O)CC(NC(C)=O)c2ccccc2)cc1 (stereo not shown)  0.997%
42. CC(C)OCCCNC(=O)C1CCC(=O)N1C1CCCC1 (stereo not shown)  -0.203%
43. N#Cc1cc(-c2ccccc2)nc(Oc2ccccc2)n1  -1.24%
44. COc1ccccc1NC(=O)CSc1n[nH]c(-c2ccccn2)n1  -1.44%
45. O=C(N/N=C\c1cc([N+](=O)[O-])ccc1N1CCOCC1)c1ccccn1  -1.46%
46. Cc1ccccc1NC(=O)CSc1ccncc1  -1.94%
47. COc1cccc(N2CC(C(=O)OC(C)C(=O)c3ccccc3)CC2=O)c1 (stereo not shown)  -2.07%
48. c1ccc(Nc2nc3ccccc3n3cnnc23)cc1  -2.08%
49. O=C(COC(=O)COc1ccc(Cl)cc1)Nc1ccc(F)c([N+](=O)[O-])c1  -2.51%
50. O=C(c1ccc(Cl)c([N+](=O)[O-])c1)N(Cc1ccco1)C1CCS(=O)(=O)C1 (stereo not shown)  -2.87%
51. Cn1cccc1C(C#N)(CC#N)c1cccc(F)c1C#N (stereo not shown)  -2.9%
52. O=C(OCc1ccccc1)c1ccc2c(c1)-c1ccccc1C2=O  -3.76%
53. c1ccc(Cn2ccnc2-c2ccco2)cc1  -4.16%
54. O=C(c1ccc(Cl)c(S(=O)(=O)N2CCCC2)c1)N1CCN(c2ncccn2)CC1  -4.2%
55. O=S1(=O)CCOC[C@H](c2ccccc2)N1Cc1ccccc1F  -4.34%
56. OCc1nnc2c3ccccc3c(-c3ccccc3)nn12  -4.77%
57. O=C(CNS(=O)(=O)c1cccc2nonc12)NCc1ccc(F)cc1  -4.96%
58. O=C(NCC(c1ccco1)N1CCOCC1)c1ccc([N+](=O)[O-])cc1 (stereo not shown)  -5.83%
59. CCCCCc1nnc(NC(=O)C(=O)OCC)s1  -5.92%
60. CCCCc1cc(=O)oc2c(CN3CCN(C)CC3)c(O)ccc12  -6.07%
61. COc1cccc(/C=C/C(=O)OCC(=O)NCC2CCCO2)c1OC (stereo not shown)  -6.11%
62. O=C(NCc1ccccc1Cl)C1CCN(S(=O)(=O)N2CCC3(CC2)OCCO3)CC1  -7.14%
63. COc1ccccc1N(CC(=O)Nc1ccc(C(F)(F)F)cc1)S(C)(=O)=O  -7.17%
64. Cc1ccc(CNC(=O)[C@H](Cc2ccccc2)NC(=O)c2ccco2)cc1  -10.1%
65. COc1ccc(CNC(=O)CCN2C(=O)c3ccccc3C2=O)cc1  -10.8%
66. Cc1cccc(N2CC(C(=O)Nc3nnc(SCc4ccccn4)s3)CC2=O)c1 (stereo not shown)  -12.8%
67. CC(C)n1ncc2c(C(=O)N3CCN(c4ccc(F)cc4)CC3)cc(-c3ccccc3)nc21  -13.5%
68. CC(=O)Nc1ccc(NC(=O)C(=O)NCC(c2ccco2)N2CCc3ccccc3C2)cc1 (stereo not shown)  -14%
69. CCN(CC)c1ccc(NC(=O)c2cncc(Br)c2)cc1  -14%
70. COc1ccc(NC(=O)c2oc3ccccc3c2NC(=O)C2CCCO2)cc1OC (stereo not shown)  -17.8%
71. Cc1sc2c(c1C)C(c1ccc(C(C)(C)C)cc1)=NCC(=O)N2CC(=O)Nc1nccs1  -17.9%
72. CCC(=O)c1ccc(OCC(=O)OCC(=O)NCc2cccs2)cc1  -18.1%
73. CCOCCCNC(=O)/C(C#N)=C/c1ccc(-c2ccc(S(=O)(=O)N3CCOCC3)cc2)o1  -19%
74. COC(=O)C1=C(c2ccc(-c3ccccc3)c(F)c2)C[C@@H]2CC[C@H]1N2C(=O)N1CCOCC1  -19.3%
75. Cn1c(=O)c2c(nc(N3CCCCCC3)n2CCSc2nc3ccccc3o2)n(C)c1=O  -19.9%
76. Cc1ccc(N(C(=O)Cn2nnc(-c3ccc(C)o3)n2)C(C(=O)NC2CCCC2)c2ccncc2)cc1 (stereo not shown)  -22.3%
77. CN1CCN(c2ccc(NC(=O)c3ccc(Cl)cc3Cl)cc2)CC1  -23.4%
78. O=C(Nc1nccs1)c1cccc(S(=O)(=O)N2CCCCC2)c1  -26.2%
79. CCOC(=O)N1CCC(NC(=O)c2cnn3c(C(F)(F)F)cc(-c4cccc(OC)c4)nc23)CC1  -42.2%
80. O=C(c1ccc(Cl)cc1)N(Cc1ccc(Br)cc1)N1C(=O)CCC1=O  -43.4%
81. O=C1CCN(Cc2ccccc2)CCN1[C@H](CSc1ccccc1)c1ccccc1  -44.7%
82. O=C(/C=C/c1cn(-c2ccccc2)nc1-c1cccnc1)N1CCCCC1  -49.7%
83. Cc1cc(S(=O)(=O)Nc2ccc(C(=O)NCC(c3ccco3)N3CCCC3)cc2)ccc1F (stereo not shown)  -50.6%
84. CCCCc1ccc(-n2c(Cc3cccs3)n[nH]c2=S)cc1  -56.3%
85. Cn1c(N2CCC(C(N)=O)CC2)nc2c1c(=O)n(Cc1ccc(Cl)cc1)c(=O)n2C  -58.5%
86. CCOc1ccc(OCc2cccc(C(=O)Nc3ccc(CN4CCCCC4)cc3)c2)cc1  -63.2%
87. COc1ccc(NC(=S)N(CCCN2CCC(C)CC2)Cc2cccs2)cc1Cl  -73.1%
88. N=c1c(C(=O)NCC2CCCO2)cc2c(=O)n3ccccc3nc2n1Cc1ccc(F)cc1 (stereo not shown)  -80%
